In publication PMC4336329 (PLoS ONE, 2015):
In all, about 310,000 compounds went through this assay and about 14,000 (4.5%) showed an effect of 50% or more. The effect is printed as a negative number. This is one part of the list.

target: human ether-à-go-go-related gene (hERG) potassium channel (human, UniProt Q12809); assay: primary screen, population patch clamp on CHO cells stably expressing hERG
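Further: peak tail current of the secondary pulse compared with the same well before compound.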

Chain of human ether-à-go-go-related gene (hERG) potassium channel (Q12809 whole entry, looked up): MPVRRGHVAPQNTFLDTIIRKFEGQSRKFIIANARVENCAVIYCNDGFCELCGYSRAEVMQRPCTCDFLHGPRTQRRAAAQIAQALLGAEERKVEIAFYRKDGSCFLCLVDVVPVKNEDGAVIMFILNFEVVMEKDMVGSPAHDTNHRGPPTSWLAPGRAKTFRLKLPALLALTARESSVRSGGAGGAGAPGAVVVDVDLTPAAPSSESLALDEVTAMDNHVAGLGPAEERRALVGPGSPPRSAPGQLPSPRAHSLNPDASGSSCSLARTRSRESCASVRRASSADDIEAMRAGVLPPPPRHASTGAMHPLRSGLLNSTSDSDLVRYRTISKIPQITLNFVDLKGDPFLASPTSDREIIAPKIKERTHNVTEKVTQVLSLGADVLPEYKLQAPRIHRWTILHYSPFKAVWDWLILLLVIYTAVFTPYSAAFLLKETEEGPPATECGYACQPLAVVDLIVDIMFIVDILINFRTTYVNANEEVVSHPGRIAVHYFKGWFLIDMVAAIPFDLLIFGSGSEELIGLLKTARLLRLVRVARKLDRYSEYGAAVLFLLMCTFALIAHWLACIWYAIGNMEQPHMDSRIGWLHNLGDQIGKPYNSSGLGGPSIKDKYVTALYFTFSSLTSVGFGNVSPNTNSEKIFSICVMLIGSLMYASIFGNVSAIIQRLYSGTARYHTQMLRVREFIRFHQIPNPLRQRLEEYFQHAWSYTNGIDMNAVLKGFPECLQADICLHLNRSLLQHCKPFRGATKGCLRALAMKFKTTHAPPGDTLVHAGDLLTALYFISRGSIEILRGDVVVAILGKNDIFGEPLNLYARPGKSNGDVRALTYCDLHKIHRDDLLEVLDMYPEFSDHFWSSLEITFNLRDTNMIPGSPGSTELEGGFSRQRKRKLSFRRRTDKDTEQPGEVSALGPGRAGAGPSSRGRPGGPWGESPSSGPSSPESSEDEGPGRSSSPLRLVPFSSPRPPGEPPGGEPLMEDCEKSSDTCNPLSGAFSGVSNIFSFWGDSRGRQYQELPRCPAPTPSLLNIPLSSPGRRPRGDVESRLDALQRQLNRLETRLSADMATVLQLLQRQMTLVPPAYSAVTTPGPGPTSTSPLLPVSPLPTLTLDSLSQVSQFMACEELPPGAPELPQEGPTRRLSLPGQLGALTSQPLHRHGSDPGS

| Compound | hERG current change (%, negative = inhibition) at 10uM [%] |
| --- | --- |
| CCOc1ccc(S(=O)(=O)NC2CCCCCC2)cc1 | 24.9 |
| CCC/C(O)=C1\C(=O)CC(c2ccccc2)CC1=NC(C)C(=O)O (stereo not drawn) | 2.38 |
| COc1cc2ccccc2cc1C(=O)OCC(=O)N(CC(C)C)c1c(N)n(Cc2ccccc2)c(=O)[nH]c1=O | -9.13 |
| CSC1=N/C(=C\c2ccc3c(c2)OCO3)C(=O)S1 | 12.3 |
| CC1CN(S(=O)(=O)c2ccc(C(=O)Nc3nc(-c4cc5ccccc5o4)cs3)cc2)CC(C)O1 (stereo not drawn) | 18.6 |
| COC(=O)C1=C(C)N(CCc2cc(OC)c(OC)c(OC)c2)C(=O)N[C@H]1c1ccc(Br)cc1 | -45.4 |
| COc1ccc(N2C(=O)/C(=C/c3cccnc3)NC2=S)cc1 | 8.95 |
| COc1cc(C(=O)NNC(=O)c2cccn2C)cc(OC)c1OC | -13.3 |
| CC(C)(NS(=O)(=O)OCC(Cl)(Cl)Cl)c1ccccc1 | -1.71 |
| Cc1ccccc1OCCOC(=O)c1ccc(S(=O)(=O)N2CCCC2)cc1 | 3.69 |
| COc1ccc(CN2CCC(=O)NC2=O)cc1 | 2.92 |
| COc1cc(OC)c2c(C)cc(=O)oc2c1 | 15.4 |
| CCOc1cc(NC(=S)NCCCOC)c(OCC)cc1NC(=O)c1cccs1 | 11.4 |
| O=S(=O)(NCc1ccco1)c1ccc(Cl)cc1Cl | 6.29 |
| Cc1ccc(C(=O)Nc2ccccc2N2CCCC2)cc1 | -3.97 |
| CCOc1[nH]n(-c2ccc(Cl)cc2)c(=O)c1C=Nc1ccc(OC)cc1 | 14.8 |
| COc1ccc(-n2c(C)cc(C=O)c2C)cc1Cl | 8.27 |
| Cc1cc(C)cc(Cn2ncc(Cl)c(Cl)c2=O)c1 | -9.97 |
| COc1ccc(CNC(=O)C2CCN(C(=O)c3ccc(-c4ccccc4)cc3)CC2)cc1 | -19.5 |

| Compound | hERG current change (%, negative = inhibition) at 10uM [%] |
| --- | --- |
| Cc1ccc(NC(=S)NC(CO)C(O)c2ccc([N+](=O)[O-])cc2)cc1 (stereo not drawn) | 7.1 |
| CCc1cc(=O)[nH]c(SCc2ccc(C)cc2)n1 | -3.28 |
| Cc1ccc(-c2nc(-c3ccncc3)no2)cc1C | 9.9 |
| CC1=C(C#N)C(c2ccccc2)C2=C(N1)c1ccccc1C2=O (stereo not drawn) | 1.22 |
| CN(C(=O)CN1C(=O)S/C(=C\c2ccc(Cl)cc2)C1=O)C1CCS(=O)(=O)C1 (stereo not drawn) | -11.9 |
| CCOC(=O)c1nn(-c2ccccc2)cc1O | 13.2 |
| Oc1c(C(c2ccco2)N2CCN(C(c3ccccc3)c3ccccc3)CC2)sc2ncnn12 (stereo not drawn) | -1.92 |
| COc1ccc(S(=O)(=O)N2CCC(C(=O)N3CCC(C(N)=O)CC3)CC2)cc1Cl | 1.6 |
| Cc1ccccc1OCc1nnc(SCC(=O)Nc2c(C)n(C)n(-c3ccccc3)c2=O)n1-c1ccccc1 | -13.7 |
| C/C(Nc1cccc(F)c1)=C(/C#N)C(N)=O | 7.81 |
| Cc1nc2cc(S(=O)(=O)C(F)(F)F)ccc2s1 | -4.12 |
| O=C(NNc1c2ccccc2nc2ccccc12)c1ccc(O)cc1O | 10.5 |
| CC(OC(=O)C1CCCC1)C(=O)Nc1ncc(Cl)cc1Cl (stereo not drawn) | -2.36 |
| COC(CNC(=O)CNC(=S)N(Cc1ccccc1)Cc1cccnc1)OC | 0.417 |
| CCO[C@H]1OC(C(=O)N2CCOCC2)=C[C@@H](c2ccc3c(c2)OCO3)[C@@H]1CCCO | 4.59 |
| CCOc1ccc(S(=O)(=O)Nc2cccc(C(=O)NCC3CCCO3)c2)cc1 (stereo not drawn) | 1.2 |
| COC(=O)c1ccccc1NC(=O)CCn1c(=O)oc2ccccc21 | -4.74 |
| O=C(CN(C(=O)CNC(=O)c1cccs1)c1cccc(F)c1)NC1CCCC1 | -12 |
| CCOc1ccc(Br)cc1S(=O)(=O)NCCN1CCCC1.Cl | -5.1 |

| Compound | hERG current change (%, negative = inhibition) at 10uM [%] |
| --- | --- |
| CCCCn1c(N)c(N(CCOC)C(=O)c2ccco2)c(=O)[nH]c1=O | 0.12 |
| O=C(CNC(=O)c1ccc2c(c1)OCO2)Nc1ncccc1O | -2 |
| COc1ccccc1CC(=O)c1ccc(OCc2ccccc2)cc1 | 8.43 |
| COc1ccc(CN(C(=O)c2oc3ccc(F)cc3c2C)C2CCS(=O)(=O)C2)cc1 (stereo not drawn) | -25 |
| Cc1cc(NC(=O)CSc2n[nH]c(CC(C)C)n2)no1 | 0.857 |
| COc1ccc(/C=C/c2cc(C(F)(F)F)[nH]c(=O)n2)cc1OC | -6.91 |
| CCCc1c(C(=O)N/N=C/c2ccc(OC)c(OCc3ccccc3)c2)nnn1-c1nonc1N | 7.71 |
| O=C(c1ccccc1Cl)N1CCC(c2nc3c(nnn3Cc3ccco3)c(=O)[nH]2)CC1 | -22.1 |
| O=[N+]([O-])c1ccccc1N(CC1CO1)S(=O)(=O)c1ccccc1 (stereo not drawn) | 2.02 |
| Cc1ccc(Nc2nc(N)c(C#N)c(CC#N)c2C#N)cc1 | -3.61 |
| CC[C@]12CCCN3CCc4c(n(c5ccccc45)C(=O)C1)[C@@H]32 | -75 |
| O=C(CSc1nc2c(c(=O)n1-c1ccc(F)cc1)SCC2)Nc1ccc2c(c1)OCO2 | -2.35 |
| O=C(c1ccc2c(c1)OCCO2)C1CCN(C(=O)Nc2ccc(F)cc2)CC1 | -6.26 |
| O=C(CNC(=O)c1cccs1)OCC(=O)c1ccccc1Cl | 17.2 |
| COCCN(C(=O)c1ccccc1Oc1ccccc1)c1c(N)n(CC(C)C)c(=O)[nH]c1=O | 8.21 |
| O=C(Nc1cccc(C(=O)N2CCOCC2)c1)c1ncn[nH]1 | 10 |
| Cc1cccc(N2C(=N)SCC2=O)c1C | 13.3 |
| N#C/C(=C\c1ccc(Cl)cc1)C(=O)NC1CC1 | 0.943 |
| Cc1cccc(C(=O)NNC(=O)CSc2nnc(C(C)C)n2C)c1 | 8.68 |
